# Experimental data as given in PubChem BioAssay AID588342 (National Center for Advancing Translational Sciences (NCATS), 2011).
# Out of some 360,000 compounds screened, about 25,000 (6.9%) were called active. Inconclusive results, whose numbers are uncertain, are shown with a selection of clear calls. The call rests on the fitted dose curve; in most records, active means well fitted inhibition curve with a large enough effect; inconclusive means small, poorly fitted or top-dose-only effect; inactive means flat fitted curve, though single readings scatter. Where the call is inconclusive, the potency comes from a doubtful curve fit.
# Biological target: Luciferin 4-monooxygenase (Photinus pyralis) (UniProt P08659)
# Assay: qHTS profiling assay for firefly luciferase inhibitor/activator using purifed enzyme and Km concentrations of substrates (counterscreen for miR-21 project); further: nearly all actives have a fitted effect of over 55% in size;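 on activity change, negative = inhibition: plate controls were vehicle for no effect and reference inhibitor for full effect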
# Details: purified FLuc, luminescence inhibition; activity change, negative = inhibition: at 57.5 µM (top of the series)
# Summary of the method: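 Purified P. pyralis luciferase (10nM final) with 10uM D-luciferin and 10uM ATP (Km levels) in 50mM Tris acetate pH 7.5, 10mM Mg acetate, 0.01% Tween-20, 0.05% BSA; qHTS 6-point titration, ~60 µM downward; luminescence read.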
# Potency means the concentration at half of the fitted maximal effect; tags describe the fitted curve by direction and shape.
# Sequence of UniProt P08659 (P08659 whole entry, looked up): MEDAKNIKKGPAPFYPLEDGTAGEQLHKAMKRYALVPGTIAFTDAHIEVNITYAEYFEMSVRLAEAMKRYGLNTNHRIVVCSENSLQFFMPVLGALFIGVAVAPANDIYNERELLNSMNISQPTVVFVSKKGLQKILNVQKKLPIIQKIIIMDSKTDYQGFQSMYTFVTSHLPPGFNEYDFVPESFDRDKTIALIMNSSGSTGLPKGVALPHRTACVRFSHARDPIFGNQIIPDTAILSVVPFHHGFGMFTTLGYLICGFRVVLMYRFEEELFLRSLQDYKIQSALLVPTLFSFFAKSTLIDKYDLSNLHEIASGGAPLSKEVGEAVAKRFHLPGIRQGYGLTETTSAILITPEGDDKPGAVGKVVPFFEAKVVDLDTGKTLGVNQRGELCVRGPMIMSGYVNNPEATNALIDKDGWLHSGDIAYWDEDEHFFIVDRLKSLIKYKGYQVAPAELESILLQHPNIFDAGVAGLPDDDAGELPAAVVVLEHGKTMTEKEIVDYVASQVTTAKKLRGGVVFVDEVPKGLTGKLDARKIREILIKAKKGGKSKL
SMILES,Potency,"activity change, negative = inhibition"
COc1cccc(/C=c2\s/c(=C/C(=O)c3ccc(C)cc3)[nH]c2=O)c1OC,"inconclusive: 30.1 µM [inhibitor, partial curve, poor fit]",–
Cn1ccnc1SCC(=O)Nc1cccc(Br)c1,–,inactive: -16.3%
COc1ccc(/C=C2\SC(=S)N(CCC(=O)Nc3ccc(C(=O)O)cc3)C2=O)cc1,active: 3.01 µM,–
Cc1ccc(OCC(=O)N/N=C\c2c(C)[nH]n(-c3ccccc3)c2=O)c([N+](=O)[O-])c1,"inconclusive: 21.3 µM [inhibitor, single point]",–
COc1ccc2cc3cc(C(=O)Nc4ccc5c(c4)OCCO5)oc3nc2c1,"inconclusive: 8.49 µM [inhibitor, partial curve, poor fit]",–
CC(CS(=O)(=O)c1cccc2cccnc12)N1CCCCC1 (centres undefined),–,inactive: 3.38%
O=C(N/N=C/c1ccc2c(c1)OCO2)c1ccc2ccccc2n1,active: 3.01 µM,–
COc1ccc(-c2noc(-c3ccco3)n2)cc1OC,active: 7.57 µM,–
CCOC(=O)c1cnc2ccc(OC)cc2c1NCc1ccccc1,"inconclusive: 37.9 µM [inhibitor, partial curve, poor fit]",–
CCC(=O)N1CCN(c2ccc(NC(=O)c3ccc(C#N)cc3F)cc2Cl)CC1,"inconclusive: 37.9 µM [inhibitor, partial curve, poor fit]",–
O=C(/C=C/c1cccc([N+](=O)[O-])c1)NCCSCc1ccco1,"inconclusive: 13.5 µM [inhibitor, partial curve, poor fit]",–
COc1ccc(C(=O)Nc2sc(C(=O)N(C)C)c(C)c2C#N)cc1[N+](=O)[O-],"inconclusive: 26.9 µM [inhibitor, partial curve, poor fit]",–
O=C(NCCc1ccccc1Cl)C1CCC(=O)N(C2CCCCCC2)C1 (centres undefined),–,inactive: -1.01%
CC(C)CSc1n[nH]c(=S)s1,"inconclusive: 37.9 µM [inhibitor, single point]",–
COc1ccc(/C=C/C(=O)NC(=S)N2CCN(C)CC2)cc1,"inconclusive: 19 µM [inhibitor, partial curve, poor fit]",–
COc1ccc(C(=O)N[C@H](C(=O)Nc2ccc(OC)nc2)C(C)C)cc1,"inconclusive: 30.1 µM [inhibitor, partial curve, poor fit]",–
COc1ccc2oc(-c3ccco3)cc(=O)c2c1,active: 12 µM,–
CC(=O)Nc1ccc(S(=O)(=O)Oc2cccc(N3C(=O)C4CC=CCC4C3=O)c2)cc1 (centres undefined),–,inactive: 0.783%
CC(C)(C)c1ccc(COn2ccnc2)cc1,"inconclusive: 26.9 µM [inhibitor, single point]",–
